This is an account of results in patent US8241860B2, “Cell free methods for detecting protein-ligand binding” (The Arizona Board of Regents of Behalf of the University of …, priority 2007, dated 2012).

The subject of one test is zinc finger/DNA. The test can be described thus: Irrelevant zinc finger/DNA cell-free split-luciferase control assay. The conditions noted are these: excess chetomin or PKI-peptide. Format: binding.
Test [1] has as its target interaction between HIF-1α and p300 (Homo sapiens, UniProt Q09472). The test can be described thus: biochemical.

By IC50 is commonly meant the point on the concentration scale where inhibition reaches its midpoint. For the molecule `CN1C(=O)[C@]2(Cc3cn([C@]45C[C@@]67SS[C@@](CO)(C(=O)N6[C@H]4Nc4ccccc45)N(C)C7=O)c4ccccc34)SS[C@@]1(CO)C(=O)N2C` [chetomin], the “effect on signal generation in the irrelevant zinc finger/DNA cell-free assay” value with zinc finger/DNA is “no effect on signal generation”. Half-maximal inhibition in test [1] (IC50) required 290 nM.
